# From the supplement of paper PMC7826260
# The list shows a part of the results. The data describe in vitro nicking of single-stranded DNA by Rep domains for 1 h at 37 °C with 3 µM enzyme; only the middle of the 90-letter strands is printed. Numbers give uncut DNA relative to the enzyme-free pool, as log2; the lower, the more was cut; hits are not called. Reads are scaled to the total; where an enzyme cuts many sequences, the uncut ones exceed 0.
# Key:
# Test in all cases: uncleaved DNA left, log2 of reads against the no-enzyme library (log2 ratio); higher = less cleavage (more negative = more Rep cleavage of the k-mer); sequences stand for … in CTCGTCCG…ACCGGAGA
# [1] = tested on: T1, Rep nickase domain of Muscovy duck circovirus
# T1 sequence (residues 1-111, tag not shown): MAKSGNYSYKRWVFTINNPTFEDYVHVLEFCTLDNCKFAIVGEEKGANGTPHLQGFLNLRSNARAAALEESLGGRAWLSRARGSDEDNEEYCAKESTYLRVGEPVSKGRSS
# Description: (§1)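 A pool of 90-nt single-stranded DNAs with seven random bases just before the constant AC of the nick site (name = the seven bases) was cut by 3 µM recombinant His6-SUMO-tagged Rep nickase domain (300 nM DNA, 50 mM HEPES pH 8.0, 50 mM NaCl, 1 mM MnCl2, 1 h, 37 °C, three replicates). Uncut DNA was amplified and sequenced.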
# [2] = tested on: T2, Rep nickase domain of banana bunchy top virus
# T2 sequence (residues 1-94, tag not shown): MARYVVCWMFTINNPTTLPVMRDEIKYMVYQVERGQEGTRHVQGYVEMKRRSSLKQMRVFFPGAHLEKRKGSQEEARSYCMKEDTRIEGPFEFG
# Description: as §1
# [3] = tested on: T3, Rep nickase domain of cabbage leaf curl virus
# T3 sequence (residues 1-116, tag not shown): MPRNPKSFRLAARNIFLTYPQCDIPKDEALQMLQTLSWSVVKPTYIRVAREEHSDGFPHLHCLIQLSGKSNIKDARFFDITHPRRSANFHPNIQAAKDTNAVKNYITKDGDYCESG
# Description: as §1
# [4] = tested on: T4, Rep nickase domain of chickpea chlorotic dwarf virus
# T4 sequence (residues 1-124, tag not shown): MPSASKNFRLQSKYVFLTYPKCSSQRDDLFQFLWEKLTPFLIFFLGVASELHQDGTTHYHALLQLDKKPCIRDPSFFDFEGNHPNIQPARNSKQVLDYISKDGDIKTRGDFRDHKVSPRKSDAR
# Description: as §1
# [5] = tested on: T5, Rep nickase domain of faba bean necrotic yellows virus
# T5 sequence (residues 1-98, tag not shown): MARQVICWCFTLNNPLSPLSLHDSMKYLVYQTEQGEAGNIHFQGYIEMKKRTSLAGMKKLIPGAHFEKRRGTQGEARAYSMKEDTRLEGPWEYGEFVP
# Description: as §1
# [6] = tested on: T6, Rep nickase domain of maize striate mosaic virus
# T6 sequence (residues 1-117, tag not shown): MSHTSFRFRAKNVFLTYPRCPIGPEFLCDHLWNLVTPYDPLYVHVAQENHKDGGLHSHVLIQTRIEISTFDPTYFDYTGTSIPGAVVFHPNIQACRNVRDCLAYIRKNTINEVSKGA
# Description: as §1
# [7] = tested on: T7, Rep nickase domain of porcine circovirus 2
# T7 sequence (residues 2-116, tag not shown): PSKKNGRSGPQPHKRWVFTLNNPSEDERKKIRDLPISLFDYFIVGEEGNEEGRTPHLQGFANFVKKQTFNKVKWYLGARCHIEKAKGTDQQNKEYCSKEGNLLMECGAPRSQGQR
# Description: as §1
# [8] = tested on: T8, Rep nickase domain of tomato golden mosaic virus
# T8 sequence (residues 1-124, tag not shown): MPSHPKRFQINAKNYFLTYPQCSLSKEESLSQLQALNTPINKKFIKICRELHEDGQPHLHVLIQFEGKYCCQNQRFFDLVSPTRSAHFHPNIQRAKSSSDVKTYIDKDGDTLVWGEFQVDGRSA
# Description: as §1
# [9] = tested on: T9, Rep nickase domain of tomato yellow leaf curl virus
# T9 sequence (residues 1-136, tag not shown): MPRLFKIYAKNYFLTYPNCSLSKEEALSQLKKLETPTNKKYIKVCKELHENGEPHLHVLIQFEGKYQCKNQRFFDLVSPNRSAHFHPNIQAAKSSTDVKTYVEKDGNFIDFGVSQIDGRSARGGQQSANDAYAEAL
# Description: as §1
# [10] = tested on: T10, Rep nickase domain of wheat dwarf virus
# T10 sequence (residues 1-137, tag not shown): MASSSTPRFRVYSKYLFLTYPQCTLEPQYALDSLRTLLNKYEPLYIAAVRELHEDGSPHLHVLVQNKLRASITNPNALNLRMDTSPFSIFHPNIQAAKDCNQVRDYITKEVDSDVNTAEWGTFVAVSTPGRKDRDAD
# Description: as §1
Sequence,uncleaved DNA left (log2) [1],uncleaved DNA left (log2) [2],uncleaved DNA left (log2) [3],uncleaved DNA left (log2) [4],uncleaved DNA left (log2) [5],uncleaved DNA left (log2) [6],uncleaved DNA left (log2) [7],uncleaved DNA left (log2) [8],uncleaved DNA left (log2) [9],uncleaved DNA left (log2) [10]
AAATATA,-0.564,0.0927,-1.17,-2.94,0.105,-0.706,-1.6,-0.0442,0.108,-0.284
TTAACGC,0.11,-0.0741,-0.448,-0.684,-0.0036,-0.734,0.124,0.0413,-0.00254,-0.046
TGTCGAT,0.0924,0.0654,0.0158,0.252,0.0126,0.106,-0.0698,0.0844,0.103,0.118
TCCGAGA,-0.0315,0.0298,0.843,1.6,-0.00409,2.12,0.0122,0.0399,-0.0117,0.0553
CCGCGAG,0.0145,-0.223,-0.265,0.0137,8.26e-05,-0.806,0.0296,-0.125,0.00281,-0.0289
AACTGAT,-0.339,-0.141,-0.0397,0.629,0.0865,1.32,-3.75,0.0452,-0.00372,0.174
CGGCAAA,0.0586,0.0359,0.0555,0.457,-0.121,0.258,-0.0746,-0.0632,0.0184,-0.1
CAGGCGC,-0.186,-0.0717,-0.812,-0.68,-0.0333,-0.771,0.0723,-0.124,-0.0565,-0.233
GAAGTCG,0.136,0.135,-0.715,0.0505,0.0381,-0.822,0.0337,0.0596,0.0186,0.0728
TCGGCAT,-0.0341,-0.0344,0.557,1.17,0.00316,1.51,0.0887,-0.032,-0.208,0.067
AGACAAT,0.0513,-0.0475,0.546,1.18,-0.0929,1.64,-0.139,0.0472,-0.0429,0.156
GGGCGGG,0.26,0.185,0.869,1.73,0.213,2.11,0.332,0.12,0.0106,0.159
TAGATGT,0.0961,-0.177,-0.348,-0.875,-0.0459,0.324,-3.34,-0.00428,-0.0365,-0.0151
GGATCAA,0.0352,0.121,0.694,1.64,0.026,2.01,0.129,0.0202,0.0135,0.118
TCGCCGT,-0.0525,-0.212,-0.506,-0.766,-0.292,-0.949,-0.126,-0.166,-0.123,-0.307
ACCACTG,-0.00485,0.00217,-0.436,-0.0894,-0.0951,-0.484,0.0735,-0.039,-0.0638,-0.134
TAACTCC,-0.106,-0.0265,-1.01,-2.92,-0.0626,0.259,-0.104,-0.116,-0.112,-0.326
AGCGCCT,-0.031,0.0743,-0.0368,0.225,-0.0871,1.44,-0.0461,-0.03,0.00996,0.0453
CCTGATT,0.174,-0.222,-0.152,-1.57,-0.163,-0.393,-2.13,0.125,0.0362,-0.133
TGATGGG,0.0632,-0.0276,-0.457,-0.591,0.0693,-0.831,0.155,0.0516,0.0602,-0.114

Sequence,uncleaved DNA left (log2) [1],uncleaved DNA left (log2) [2],uncleaved DNA left (log2) [3],uncleaved DNA left (log2) [4],uncleaved DNA left (log2) [5],uncleaved DNA left (log2) [6],uncleaved DNA left (log2) [7],uncleaved DNA left (log2) [8],uncleaved DNA left (log2) [9],uncleaved DNA left (log2) [10]
GCGTATA,0.0953,0.0112,0.0483,-0.217,0.0408,0.234,-0.138,0.187,0.111,0.0808
TAAGTTC,-0.0243,-0.0758,-0.0883,-2.65,-0.037,-0.617,-0.165,-0.118,-0.00583,-1.05
AACAACG,0.0258,0.0298,-0.738,-0.44,0.065,-0.867,0.197,0.0206,0.044,-0.0163
GTCGCGC,-0.118,-0.0475,-0.386,-0.405,-0.0267,-0.411,0.107,-0.0529,0.0462,-0.181
TTTCAGA,0.0307,-0.0899,0.0812,-0.242,-0.123,-0.553,0.0229,-0.0365,-0.0554,-0.121
ACACACA,-0.181,-0.0455,-0.302,-1.45,-0.0567,-0.647,-0.0272,-0.0525,-0.0984,-0.121
TAGAGCA,0.216,0.0398,-0.0306,-1.16,0.165,-0.606,-2.29,0.226,0.209,0.0903
GAATTAG,0.0978,-0.0283,-0.719,-0.443,0.0614,-1.07,0.117,-0.0249,0.0554,0.014
TTGAGTG,0.266,0.0958,-0.165,-0.231,0.23,-0.731,0.31,0.125,0.237,0.0753
TCATCTT,-3.28,-0.316,-2.43,-2.74,0.0654,-0.739,-3.43,-0.195,-0.171,-0.556
GGAGGGT,0.151,0.0374,0.51,1.33,0.104,1.67,0.249,0.189,-0.0424,0.0767
GACGTTC,-0.0531,-0.00432,0.598,0.98,-0.0115,1.73,0.131,0.0232,0.00363,0.0366
AGAGTTG,0.0853,0.0682,0.0709,0.527,-0.127,0.984,0.136,0.115,-0.0781,0.0831
GAGAAAA,0.162,0.219,0.467,1,0.0657,1.24,-0.128,0.0911,0.165,0.278
TACCCCT,-0.0197,-0.00522,-2.16,-2.71,-0.0467,-1.24,-2.02,-0.321,-0.0594,-0.301
AAGTACG,0.0252,0.158,-0.59,-0.531,0.0593,-1,0.166,0.0359,0.0324,-0.0781
GAGTGAA,0.208,0.123,0.377,0.708,0.0454,1.23,-2.31,0.132,0.106,0.239
TTCGGCC,-0.0139,-0.0169,0.0668,-0.0245,0.0644,-0.482,0.0518,-0.0147,0.0145,0.0326
TTGATGA,0.0247,-0.0415,-0.114,-0.0962,0.159,-0.872,0.111,-0.0317,0.0106,-0.0397
TAACCGA,0.0225,0.0388,-0.511,-1.95,0.088,-0.998,-0.135,-0.0621,0.021,0.0403

Sequence,uncleaved DNA left (log2) [1],uncleaved DNA left (log2) [2],uncleaved DNA left (log2) [3],uncleaved DNA left (log2) [4],uncleaved DNA left (log2) [5],uncleaved DNA left (log2) [6],uncleaved DNA left (log2) [7],uncleaved DNA left (log2) [8],uncleaved DNA left (log2) [9],uncleaved DNA left (log2) [10]
CCGAACA,-0.189,-0.0471,-0.0661,-1.36,-0.0558,-0.453,-0.211,-0.0155,-0.0837,-0.0768
TAGATTT,-0.119,-3.48,-2.95,-3.04,-3.11,-0.902,-3.8,-0.92,-0.025,-0.679
CACCAAT,0.0307,-0.103,-0.284,-2.56,-0.158,-0.643,-1.07,-0.0905,0.0703,0.0919
CGGTAAC,0.0269,-0.115,0.0775,-0.235,-0.0307,0.513,0.0592,0.0229,0.0303,0.00874
CCACACA,-0.0181,0.0145,-0.12,-1.8,-0.0302,-0.599,-0.0517,-0.0604,0.0432,-0.0469
GTGGAGC,0.0664,0.124,0.462,1.08,0.147,1.64,0.213,0.235,0.17,0.134
AACAGTC,0.00519,0.116,-0.157,-0.451,0.0241,-0.974,0.231,0.116,0.0929,-0.015
TCCAAGC,-0.0889,-0.0434,0.239,0.768,-0.0322,0.523,0.237,0.0151,-0.0659,-0.0635
GCTAGAG,0.166,0.116,-0.293,-0.222,0.0434,-0.762,0.235,0.0708,0.22,-0.0525
AGTAGAT,0.0883,0.0935,0.285,1.32,-0.0322,1.63,-2.72,0.0995,-0.102,-0.0204
GACGAGA,0.089,0.0933,0.87,1.49,0.019,1.85,0.152,0.12,-0.039,0.0785
CGATGGT,-0.0852,0.00533,0.108,0.426,0.0949,0.951,-0.235,0.134,-0.00295,0.135
GAGGTAG,0.146,0.176,-0.0502,-0.0484,0.127,-0.481,0.244,0.185,0.219,0.0224
GGGTTAA,0.0133,0.056,0.723,1.74,-0.00683,2.1,0.17,0.0452,-0.00701,0.0976
CTTGGAC,-0.0479,-0.0987,0.329,1.19,-0.103,1.08,0.199,-0.0649,0.0504,0.0116
ACAGTTA,0.26,0.151,0.0515,-1.28,0.349,-0.314,0.158,0.346,0.257,0.211
TAATGCA,-1.09,0.0579,-2.86,-2.54,0.0673,-1.99,-1.66,-0.982,0.0546,-1.51
CAAGGAT,0.162,-0.0487,0.23,1.6,0.00776,1.84,0.194,-0.14,-0.188,0.00421
TTAACAC,0.13,0.0536,-0.345,-1.54,-0.0104,-0.408,0.0704,0.0309,0.156,0.00373
GCTATAA,-0.089,-0.0393,0.0498,0.424,0.00995,0.353,0.0378,0.0363,-0.0111,0.119
